According to PubChem BioAssay (NCI):
Where “and” joins values, the source holds several entries; their conditions need not be identical. Equal entries are not always repeated.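 Results reflect a 48-hour exposure of cells in 96-well plates to compound at five concentrations. Here, GI50 denotes the concentration required for 50% inhibition of growth. The concentration for full growth arrest is given as TGI.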

System: NCI-H322M lung
Test: NCI anticancer screen, dose series, 48 h

SMILES	TGI	GI50 [µM]
CC(C)CCCC(C)[C@H]1CC[C@H]2[C@@H]3CC[C@H]4C[C@@H](CCC=C(c5cc(Cl)c(O)c(C(=O)OC(C)(C)C)c5)c5cc(Cl)c(O)c(C(=O)OC(C)(C)C)c5)CC[C@]4(C)[C@H]3CC[C@]12C (stereo partly drawn)	> 50 µM	–
COc1ncc(-c2nc3c(n2C(C)C)[C@H](c2ccc(Cl)cc2)N(c2cc(Cl)cn(C)c2=O)C3=O)c(OC)n1	> 100 µM	> 100
C#CC(O)/C=C/CCCCCCC#CC/C=C\CC#CCCCCCC/C=C/C(O)C#C (stereo not drawn)	15 µM	–
Cc1cc(C)c2c(n1)S(=O)(=O)N(CCCN1CCN(c3cccc(C(F)(F)F)c3)CC1)/C(=C(\O)c1ccccc1)C2=O	> 100 µM	–
Cc1ccc(S(=O)(=O)N2CCSCCSCCN(S(=O)(=O)c3ccc(C)cc3)CCN(S(=O)(=O)c3ccc(C)cc3)CC2)cc1	> 100 µM	–
Cc1cc(N(CCC#N)CCC#N)ccc1/C=C(\NC(=O)/C=C/c1ccccc1)NC(=O)Nc1ccc(Cl)cc1	> 100 µM	–
N#Cc1c[nH]n2ccnc12	> 100 µM	–
C=CC1OC(CCCOC(=O)C(C)(C)C)O[C@@H]1CC (stereo partly drawn)	> 100 µM	–
CCN1/C(=C/c2ccc3ccccc3[n+]2CC)C=Cc2ccccc21	14.6 µM	–
COC1=CC(=O)C(O)=C(C[C@@]2(C)[C@@H]3CCC[C@H](COC(=O)CCCCCNC(=O)OC(C)(C)C)[C@@]3(C)CC[C@@H]2C)C1=O	> 10 µM	–
O=S(=O)(O)CCS	> 100 µM	–
CN1CCN(c2ccc(-c3cnc4c(-c5csc6ccccc56)cnn4c3)cc2)CC1	> 15 µM	7.33
COc1ccc(/C(Cl)=C(\C=O)c2ccc(F)cc2)cc1	73.3 µM	–
O=[N+]([O-])c1ccc(Cl)cc1C1ON=C(c2ccccc2)N1C12CC3CC(CC(C3)C1)C2 (stereo not drawn)	> 100 µM	–
CC(=O)NNc1nc(C)c(C(/C=C/c2ccc(Cl)cc2)=N\NS(=O)(=O)c2ccc(C)cc2)s1	> 100 µM	–
COC(=O)[C@]12CC[C@@H](C)[C@H](C)[C@@H]1C1=CC[C@@H]3[C@@]4(C)C(C=O)=C[C@@](C)(COC(C)=O)[C@@H]4[C@H](O)C[C@@]3(C)[C@]1(C)CC2	16.6 µM	3.88
COc1ccc(NC(=O)C(=O)NNC(=O)c2sc(NNC(C)=O)nc2C)c([N+](=O)[O-])c1	> 100 µM	–
Cc1cc(Cc2cc(C)c(NC(=O)C(=O)C3C(=O)NC(=S)NC3=O)c(C(C)C)c2)cc(C(C)C)c1NC(=O)C(=O)C1C(=O)NC(=S)NC1=O	> 100 µM	–
[Cl-].[Rh+3].c1ccc(-c2ccnc3c2ccc2c(-c4ccccc4)ccnc23)cc1.c1ccc(-c2ccnc3c2ccc2c(-c4ccccc4)ccnc23)cc1.c1ccc(-c2ccnc3c2ccc2c(-c4ccccc4)ccnc23)cc1	> 100 µM	–
COc1cc2c3c(n(CCN)c(=O)c2cc1OC)-c1cc2c(cc1C3=O)OCO2	2.71 µM	1.22
C[n+]1c2ccccc2c(CNC(CCC(N)=O)C(=O)O)c2ccccc21 (stereo not drawn)	15.6 µM	–
C/C(=N\NC(=O)CC(=O)Nc1ccc(Cl)cc1)c1cc2ccccc2oc1=O	> 100 µM	–
CCC(=O)OC1CCn2c1nc1c2C(=O)C(C)=C(N2CC2)C1=O (stereo not drawn)	1.74 µM	–

SMILES	TGI	GI50 [µM]
C=C(CN1CCN(c2cccc(C(F)(F)F)c2)CC1)c1ccc(C(=O)Nc2ccccc2N)cc1	12.3 µM	0.936
Cn1c(C(C#N)c2cc(Cl)ncn2)nc2ccccc21 (stereo not drawn)	> 100 µM	–
COc1ccc(C2NCCc3c2[nH]c2ccccc32)cc1CN1CCN(c2ccc(F)cc2)CC1 (stereo not drawn)	6.1 µM	2.26
O=C1CN(c2ccc(Cl)cc2)C(=O)CN1CCN1CC(=O)N(c2ccc(Cl)cc2)CC1=O	> 100 µM	–
Cc1cc(=O)oc2cc(OC(=O)Nc3ccc(Cl)c(Cl)c3)ccc12	> 100 µM	–
Cc1nc2c(nc1C)-c1c(c3c(n1Cc1ccccc1)C(=O)CCC3)C(=O)C2=O	35.9 µM	–
Cc1cccc(-c2cc(=O)c3ccc(C)nc3[nH]2)c1	> 100 µM	–
NC(=O)c1n[nH]n(-c2ccccc2)c1=O	> 100 µM	–
C=C(C)CCC1CCCCC(CN(C)C)C1=O (stereo not drawn)	> 100 µM	–
Cc1ccc(NC(=O)CC(=O)n2nc(-c3ccccc3)c(N=Nc3ccc(Cl)cc3)c2-c2ccccc2)cc1	> 100 µM	–
Cc1cc(S(=O)(=O)Nc2nc3ccsc3c(=O)n2Cc2ccco2)c(S)cc1Cl	> 100 µM	> 100
O=C1C=CC(=O)C1(Br)Br	29.8 µM	–
Nc1nc2c(c3ncccc13)C(c1cccc(Cl)c1)Cc1ncccc1-2 (stereo not drawn)	> 100 µM	10.6
O=[N+]([O-])c1ccc(NC2OCC(O)C(O)C2O)cc1 (stereo not drawn)	> 100 µM	–
C=C(CN(CC(=C)C(=O)c1ccccc1)C(C)(C)C)C(=O)c1ccccc1	> 74.3 µM	–
OC1C(O)C(O)C(O)C(O)C1O (stereo not drawn)	> 1000 µM	–
CCCCCCCCOc1ccc(/C=N/Nc2cc(C)nc3ccc(Cl)cc23)cc1	3.21 µM	1.79
COC(=O)C1OC(O[C@H]2CC[C@]3(C)[C@H]4CC=C5[C@@H]6CC(C)(C)CC[C@]6(C(=O)OC)[C@H](O)C[C@@]5(C)[C@]4(C)CC[C@H]3C2(C)C)C(O)C(O)C1O (stereo partly drawn)	19.1 µM	–
C/C=C(/C)C(=O)O[C@@H]1c2c(C)coc2C[C@H]2CC[C@H](O)[C@H](C)[C@]21C	> 100 µM	–
COc1cc(/C=C/C(=O)c2cc(F)c(Cl)cc2Cl)cc(OC)c1OC	> 100 µM	19.1
COC(=O)C1=C(C(=O)OC)C23C=CC=CC24C(C(=O)OC)=C(C(=O)OC)C4C1C3 (stereo not drawn)	> 100 µM	–
C[C@@]12CC[C@H]3[C@@H]4CCC(=O)N[C@@]4(C)CC[C@@H]3[C@@]1(C)CC[C@H](OC(=O)Cc1ccc(N(CCCl)CCCl)cc1)C2	33 µM	–
CN1N=C2c3ccccc3CC[C@H]2C1c1ccccc1 (stereo partly drawn)	> 100 µM	–

SMILES	TGI	GI50 [µM]
CC[C@@]1(O)C(=O)OCc2c1cc1n(c2=O)Cc2cc3cc(OC)ccc3nc2-1	0.543 µM and 0.486 µM	0.0203
CCc1cccc(CC)c1NC(=S)NC(=O)c1ccc(Br)cc1	> 100 µM	–
N#C/C(=C/c1cccnc1)C(=O)c1ccccc1	> 100 µM	–
CCCCn1c2c(c3ccccc3c1=O)C(=O)c1ccccc1-2	> 100 µM	–
c1ccc2nc3[nH]c4ccccc4c3cc2c1	5.16 µM	–
O=C1c2ccccc2S(=O)(=O)N1CSC(=S)N1CCCC1	> 100 µM	> 100
N#C/C(=C/C=C(\Cl)c1ccc(Cl)cc1)C(N)=O	6.22 µM	2.52
COc1ccc2nc(NCCCNCCO)c3sc4ccc(F)cc4c(=O)c3c2c1	3 µM	1.64
Cn1cc2c(n1)c(N/N=C/c1ccccc1)nn1nnnc21	> 100 µM	–
CC1CCCC(C(O)CC2CC(=O)N(c3ccccc3)C(=O)C2)C1=O (stereo not drawn)	> 100 µM	–
O=c1cccc(C#Cc2ccccc2)o1	19.5 µM	7.04
Nc1nc2c(ncn2CCOC(c2ccccc2)P(=O)(O)O)c(=O)[nH]1 (stereo not drawn)	> 100 µM	–
Oc1ccc2c(c1)OCC(O)(c1ccccc1O)C2 (stereo not drawn)	> 100 µM	–
COc1cc2cc(Oc3ccc(NC(=O)Nc4ccccc4)cc3)c(C)nc2cc1OCCN1CCCCC1	10.1 µM	5.52
Oc1ccc(-c2nc3cc(C(F)(F)F)ccc3n2CC2CCCN3CCCCC23)cc1 (stereo not drawn)	27 µM	–
O=C([O-])c1ccc2c(c1)-c1nc-2nc2[n-]c(nc3nc(nc4[n-]c(n1)c1ccc(C(=O)[O-])cc41)-c1cc(C(=O)[O-])ccc1-3)c1ccc(C(=O)[O-])cc21.[Fe+2]	> 50 µM	> 50
Cc1cc(O)c2c(c1)C(=O)c1cc(O)cc(O)c1C2=O	> 78.1 µM	–
CN(C)c1ccc(/C=C2\CNC/C(=C\c3ccc(N(C)C)cc3)C2=O)cc1	80.4 µM	–
Cc1cccc2sc(NC(=O)c3cc([N+](=O)[O-])ccc3Cl)nc12	> 70 µM	–
CN(C)C(=O)CC(C(=O)O)c1c[nH]c2ccccc12 (stereo not drawn)	> 100 µM	–
N#CC1C(=O)Nc2sc(C(=O)c3ccc(Br)cc3)c(N)c2C12CCCCC2 (stereo not drawn)	> 100 µM	–
OC(c1cccs1)c1cc2ccccc2s1 (stereo not drawn)	> 10 µM	–
Nc1ccc(C#Cc2cncnc2Nc2ccc(OCc3cccc(F)c3)c(Cl)c2)cc1	> 25 µM	5.94

SMILES	TGI	GI50 [µM]
COc1c2ccccc2c(O)c2c(=O)c(C(=O)O)cn(C)c12	> 100 µM	72.9
NC(=O)N/N=C(\Cc1nc2ccc(C(=O)c3ccccc3)cc2[nH]c1=O)C(=O)Nc1ccc(Br)cc1	> 100 µM	–
CCc1cccc(C(C)C)c1NC(=O)C(=O)C(C(=O)C(=O)OC)c1nc2ccccc2[nH]c1=O (stereo not drawn)	> 100 µM	–
O=C(O)CCC1COc2ccccc2O1 (stereo not drawn)	> 10 µM	–
Cc1ccc(N=C2CSc3nnc(-c4csc5c4CCCC5)n3N2)cc1	> 50 µM	0.403
O=C1/C(=C/c2ccccc2)SC(=Nc2ccccc2)N1Nc1ccccc1	> 100 µM	19.2
CCC(C(=O)[O-])C(=O)[O-].CCC(C(=O)[O-])C(=O)[O-].N.N.NCCCCCN.[Pt+4].[Pt+4]	> 100 µM	> 100
COC1(OC)N=C(N)C2(C#N)C(C)CC(=O)N(N(C)C)C12C#N (stereo not drawn)	> 100 µM	–
N#CC1C(=N)Cc2ccccc2-c2ccccc21 (stereo not drawn)	> 100 µM	15.6
COc1ccc(-c2cnc(-c3ccc(F)cc3)[nH]2)cc1	21.8 µM	7.14
COC(=O)c1ccc2n1C1CC3CC(CC2C3)C1	> 100 µM	–
COC(=O)[C@@H]1c2cc3c(c(O)c2[C@@H](OC)C[C@@]1(C)O)C(=O)c1c(O)cc2c(c1C3=O)OC1O[C@@]2(C)[C@H](O)[C@@H](N(C)C)[C@@H]1O	2.24 µM	–
CC(=O)O[C@H]1[C@@H]2[C@@H]3[C@@H](C[C@H]1C)[C@@H](C)CO[C@@]1(C)CC/C=C(/C)C[C@@H]2O[C@@H]31	> 100 µM	–
NCCNCC(O)CO (stereo not drawn)	> 100 µM	–
FC(F)(F)c1ccc2c(c1)nc(Cc1ccccc1)n2C[C@@H]1CCCN2CCCCC12 (stereo partly drawn)	33.5 µM	–
CC[N+](CC)=c1ccc2nc3c(cc(NCc4ccccc4)c4ccccc43)oc-2c1	0.618 µM	0.215
CC(=O)OCC1OC(OC2CC3C(C)(C)C(OC(C)=O)CC[C@]3(C)C3CCC45CC4(CC[C@H]5C(C)CC(O)C4OC4(C)C)[C@]23C)C(O)C(O)C1O (stereo partly drawn)	1.83 µM and 3.03 µM	1.47
CN(C)CCNCc1c2ccccc2c(CNCCN(C)C)c2ccccc12	53.5 µM	–
COc1cc(-c2oc3c(OC)c(OC)cc(O)c3c(=O)c2OC)ccc1O	42.1 µM	–
O=C(O)c1c(CC(Cc2ccc3c(c2)CCCC3)C(=O)O)ccc2c1CCCC2 (stereo not drawn)	> 100 µM	–
CCOC(=O)c1c(C)n(Cc2ccccc2)c2c1cc(O)c1[nH]c3c(c12)CCCC3	32.8 µM	–
C=C(C)C1Cc2c(cc(O)c3c(=O)c4ccccc4n(C)c23)O1 (stereo not drawn)	> 100 µM	–
CC1=C(C2=C(C)C(=O)C(=O)c3cc(C)ccc32)c2ccc(C)cc2C(=O)C1=O	3.22 µM	–
